Laboratory results taken from US12221481B2, “CD19 binding molecules and uses thereof” (Novartis AG, priority 2019, dated 2025).
Marks after values point to notes of the source that are not given here.

What was measured:
OCI-LY-19 target cells = assay: Re-challenge RTCC assay, OCI-LY-19; type: cell-based, human; details: E:T 1:1, repeated target cell challenges
Protocol: (§1) OCI-LY-19 and Karpas422 target cells stably expressing firefly luciferase were plated in a Costar 6 well plate in T Cell Media (TCM). PBMCs previously isolated and cryopreserved from 2 Leukopak donors were thawed and Pan T cells were isolated (as described earlier). […] The plates were incubated for 4 days for OCI-LY-19 and 5 days for Karpas 422 cells. At the end of incubation, the killing of target cells was determined using the luminescence signal. The absolute T cell counts from each antibody treated condition was also determined. For the next round of rechallenge, it was ensured that the killing of target cells was equivalent across various antibody conditions. […] Additionally, a dose titration RTCC at a E:T of 1:1 and a concentration range of 2 nM-0.000001 nM was set-up using T cells from the different antibody treated conditions with a 4 day incubation used for each cell line. The killing of target cells was determined using the luminescence signal to generate dose response curves. At the end of the challenge, the above process was repeated once more for Karpas 422 and twice more for OCI-LY-19 cells.

K562 target cells = assay: RTCC against K562 lacking hCD19 (Example 22); type: cell-based; details: antigen-negative, E:T 1:1, 48 hour
Protocol: (§2) The purified TBMs were compared across multiple donor effector cells. Briefly, huCD19-expressing Nalm6 and Karpas422 target cells were engineered to overexpress firefly luciferase. Cells were harvested and resuspendend in RPMI medium (Invitrogen #11875-093) with 10% FBS. 5,000 target cells per well were plated in a flat-bottom 384-well plate. Human pan T effector cells were isolated via negative selection (Stemcell Technologies #17951) from two donors from cryopreserved PBMCs that were separated from a leukopak (Hemacare #PB001F-1) by Ficoll density gradient centrifugation. Purified T cells were then added to the plate to obtain a final E:T ratio of 3:1, 1:1, 1:3 or 1:5. Co-cultured cells were incubated with serial dilutions of all constructs and controls. For normalization, average maximum luminescence refers to target cells co-incubated with effector cells, but without any test construct. After an incubation of 48, 72 or 96 hr at 37° C., 5% CO2, OneGlo luciferase substrate (Promega #E6120) was added to the plate. Luminescence was measured on an Envision plate reader after a 10 minute incubation. Percent specific lysis was calculated using the following equation: Specific lysis (%)=(1−(sample luminescence/average maximum luminescence))*100
(§3) Nalm6 KO was generated from Nalm6 parental cell line by using CRISPR-CAS9 technology and was confirmed to lack hCD19 expression. […]

Nalm6 target cells = assay: RTCC against Nalm6 (Example 22); type: cell-based, human; details: E:T 1:1, 48 hour
Protocol: as §2
Nalm6 KO was generated from Nalm6 parental cell line by using CRISPR-CAS9 technology and was confirmed to lack hCD19 expression. Oci-Ly19, Toledo, Nalm6, Nalm6 KO and K562 target cells were engineered to overexpress firefly luciferase. RTCC assays were performed with the different cells lines according to the Materials and Methods described in Example 9, but with a final E:T ratio of 1:1 and a 48 hour incubation.

Karpas422 target cells [1] = assay: Re-challenge RTCC assay, Karpas 422; type: cell-based, human; details: E:T 1:1, repeated target cell challenges
Protocol: as §1

T cells [2] = assay: TBM and BBM binding to T cells (flow cytometry); parameters: species or system human; details: 33 μg/ml-0.005 μg/ml, on ice 1 hour
Protocol: Peripheral blood mononuclear cells (PBMCs) previously isolated and cryopreserved from 2 Leukopak donors (Hemacare) were thawed and Pan T cells were isolated by negative selection using the Pan T cell Isolation Kit, human (Miltenyi Biotec, Cat #130-096-535) following the manufacturer's protocol. T cells were resuspended in FACS Buffer and 100,000 cells were added to each well of a 96 well round bottom plate. A dilution series of CD3med TSP1, CD3hi TSP1, CD3hi BSP1, and CD3hi TSP1C ranging from 33 μg/ml-0.005 μg/ml was added to cells and incubated on ice for 1 hour. Cells were washed twice, resuspended in 100 μl of anti-human IgG secondary antibody and incubated on ice for another hour. After the incubation, cells were washed twice, resuspended in 100 pI of fixable viability dye and incubated on ice for 30 min. After washing twice again, cells were resuspended in 120 μl of FACS buffer. The cells were then run on BD LSR Fortessa and data was analyzed using FlowJo to determine the MFI of anti-human IgG secondary antibody, which was plotted against antibody concentration.

[3] = test system: OCI-LY-19 DLBCL subcutaneous tumor
[4] = test system: Daudi-Luc Burkitt's lymphoma subcutaneous tumor; assay: Daudi-Luc Burkitt's lymphoma subcutaneous tumor model, human PBMC adoptive transfer, NSG mice (Example 31); type: in vivo; details: for tumor regression: single IV administration; for Δ Body weight from initial (Mean ± SEM) Day 36 / Δ Tumor burden from initial (Mean) Day 36 / Regression: single dose IV; for Regression: Day 36
Protocol: On Day 0, Daudi-Luc cells were harvested and suspended in a 1:1 mixture of Hanks Balanced Salt Solution (HBSS) and Matrigel at a concentration of 50×10^6 cells/mL.
Tumor volume and body weights were recorded twice weekly. Tumor volume was measured by caliper.
On day 36 following Daudi-Luc implantation, 25% of animals from the Tumor+AdT control group were euthanized due to tumor volume.

Nalm6 KO target cells = assay: RTCC against Nalm6 KO lacking hCD19 (Example 22); type: cell-based, human; details: antigen-negative, E:T 1:1, 48 hour
Protocol: as §2, §3

Karpas422 target cells [5] = assay: RTCC against Karpas422, E:T 1:1, 96 hour (Examples 17, 21); type: cell-based, human
Protocol: as §2
An RTCC assay with huCD19-expressing Karpas422 target cells was performed according to the Materials and Methods described in Example 9, but with a final E:T ratio of 1:1 and a 96 hour incubation.

T cells [6] = assay: Cytokine release assay with Karpas422 cells (Example 18); type: cell-based, human; details: E:T 1:1, 48 hours
Protocol: Briefly, huCD19-expressing Nalm6 target cells were harvested and resuspended in RPMI medium with 10% FBS. 20,000 target cells per well were plated in a flat-bottom 96-well plate. Human pan T effector cells were isolated via MACS negative selection from cryopreserved PBMC then added to the plate to obtain a final E:T ratio of 5:1. Co-cultured cells were incubated with serial dilutions of all constructs and controls. After an incubation of 24 hr at 37° C., 5% CO2, the supernatants were harvested by centrifugation at 300×g for 5 min for subsequent analysis.
A multiplexed ELISA was performed according to the manufacturer's instructions using a V-PLEX Proinflammatory Panel 1 Kit (MesoScale Discovery #K15049D).
A cytokine release assay was performed as in Example 10, but with Karpas422 cells at a final E:T ratio of 1:1 and an incubation of 48 hours.

B1: CD3hi TSP1: Trispecific binding molecule: NEG258-based CD19 Fab, CD3hi anti-CD3 scFv, CD58 IgV domain, knob-into-hole silenced hIgG1 Fc (antibody)
heavy: QVQLVQSGAEVKKPGASVKVSCKASGYTFTTYWIQWVRQAPGQRLEWMGAVYPGDADTRYTQKFQGRVTLTADRSASTAYMELSSLRSEDTAVYYCGRDAGLEYYALDYWGQGTLVTVSSASTKGPSVFPLAPSSKSTSGGTAALGCLVKDYFPEPVTVSWNSGALTSGVHTFPAVLQSSGLYSLSSVVTVPSSSLGTQTYICNVNHKPSNTKVDKRVEPKSCGGGGSGGGGSEVQLVESGGGLVQPGGSLKLSCAASGFTFNTYAMNWVRQASGKGLEWVGRIRSKYNNYATYYADSVKDRFTISRDDSKSTLYLQMNSLKTEDTAVYYCVRHGNFGNSYVSWFAYWGQGTLVTVSSGGGGSGGGGSGGGGSGGGGSQAVVTQEPSLTVSPGGTVTLTCRSSTGAVTTSNYANWVQQKPGQAPRGLIGGTNKRAPWTPARFSGSLLGDKAALTLSGAQPEDEAEYFCALWYSNLWVFGGGTKLTVLGGGGSDKTHTCPPCPAPELLGGPSVFLFPPKPKDTLMISRTPEVTCVVVAVSHEDPEVKFNWYVDGVEVHNAKTKPREEQYASTYRVVSVLTVLHQDWLNGKEYKCKVSNKALAAPIEKTISKAKGQPREPQVCTLPPSREEMTKNQVSLSCAVKGFYPSDIAVEWESNGQPENNYKTTPPVLDSDGSFFLVSKLTVDKSRWQQGNVFSCSVMHEALHNHYTQKSLSLSPGK
light: EIVMTQSPATLSVSPGERATLSCRASQDVGTAVAWYQQKPGQAPRLLIYWASTRHTGIPARFSGSGSGTEFTLTISSLQSEDFAVYFCQQYANFPLYTFGQGTKLEIKRTVAAPSVFIFPPSDEQLKSGTASVVCLLNNFYPREAKVQWKVDNALQSGNSQESVTEQDSKDSTYSLSSTLTLSKADYEKHKVYACEVTHQGLSSPVTKSFNRGEC
chain: SQQIYGVVYGNVTFHVPSNVPLKEVLWKKQKDKVAELENSEFRAFSSFKNRVYLDTVSGSLTIYNLTSSDEDEYEMESPNITDTMKFFLYVLESGGGGSDKTHTCPPCPAPELLGGPSVFLFPPKPKDTLMISRTPEVTCVVVAVSHEDPEVKFNWYVDGVEVHNAKTKPREEQYASTYRVVSVLTVLHQDWLNGKEYKCKVSNKALAAPIEKTISKAKGQPREPQVYTLPPCREEMTKNQVSLWCLVKGFYPSDIAVEWESNGQPENNYKTTPPVLDSDGSFFLYSKLTVDKSRWQQGNVFSCSVMHEALHNHYTQKSLSLSPGK
With B1 the “retention of killing ability upon repeated challenges” value (OCI-LY-19 target cells) was “better retain killing ability upon repeated challenges”, the “cytotoxic activity (target-independent killing)” value (K562 target cells) was “minimal activity” and the “cytotoxic activity (specific lysis)” value (Nalm6 target cells) was “showed cytotoxic activity”. For the same molecule, the “cytotoxic activity compared between constructs” value (Nalm6 target cells; statement made for the study as a whole) was “comparable cytotoxic activity to blinatumomab”, the “retention of killing ability upon repeated challenges” value (Karpas422 target cells [1]) was “better retain killing ability upon repeated challenges” and the “binding to T cells (MFI of anti-human IgG secondary antibody)” value (T cells [2]) was “strongest binder”. The tumor regression ([3]; 0.3 mg/kg IV weekly, Day 24) was 47.4%, the “Δ Body weight from initial (Mean ± SEM) Day 24” value ([3]; 0.3 mg/kg, QWx3 IV) was −13.51 ± 2.15% and the “Δ Tumor burden from initial (Mean ± SEM) Day 24” value ([3]; 0.3 mg/kg, QWx3 IV) was −175.93 ± 76.8 mm^3. For the same molecule, the Regression ([3]; 0.3 mg/kg, QWx3 IV, Day 24) was 47.4* %, the “treatment associated body weight loss” value ([3]; observed following the first dose only) was “treatment associated body weight loss” and the tumor regression ([4]; 0.1 mg/kg) was 87.52%. The “Δ Body weight from initial (Mean ± SEM) Day 36” value ([4]; 0.1 mg/kg) was −0.506 ± 4.777%, the “Δ Tumor burden from initial (Mean) Day 36” value ([4]; 0.1 mg/kg) was −128.03 mm^3 and the Regression ([4]; 0.1 mg/kg) was 87.52%. For the same molecule, the tumor regression ([4]; 0.3 mg/kg) was 91.86%, the “Δ Body weight from initial (Mean ± SEM) Day 36” value ([4]; 0.3 mg/kg) was 2.254 ± 2.975% and the “Δ Tumor burden from initial (Mean) Day 36” value ([4]; 0.3 mg/kg) was −134.39 mm^3. For the same molecule, the Regression ([4]; 0.3 mg/kg) was 91.86%, the tumor regression ([4]; 1.0 mg/kg) was 90.08% and the “Δ Body weight from initial (Mean ± SEM) Day 36” value ([4]; 1.0 mg/kg) was 5.423 ± 2.220%. The “Δ Tumor burden from initial (Mean) Day 36” value ([4]; 1.0 mg/kg) was −131.77 mm^3, the Regression ([4]; 1.0 mg/kg) was 90.08% and the “cytotoxic activity (target-independent killing)” value (Nalm6 KO target cells) was “minimal activity”. The “cytotoxic activity compared between constructs” value (Karpas422 target cells [5]) was “highest cytotoxic activity”, the “cytotoxic activity (specific lysis)” value (Karpas422 target cells [5]; two T cell donors) was “show cytotoxic activity” and the “cytokine secretion by T cells (IFN-γ, IL-2, TNF-α)” value (T cells [6]) was “induced cytokine secretion by T cells”. For the same molecule, the “level of cytokine secretion compared between constructs” value (T cells [6]) was “highest levels of cytokine secretion”.
